Test results reported in paper PMC4336329 (PLoS ONE, 2015).
In all, about 310,000 compounds went through this assay and about 2,200 (0.71%) showed an effect of 50% or more. The effect is printed as a negative number. This is one part of the list.

target: human ether-à-go-go-related gene (hERG) potassium channel (human, UniProt Q12809); assay: primary screen, population patch clamp on CHO cells stably expressing hERG
Sequence (Q12809 whole entry, looked up): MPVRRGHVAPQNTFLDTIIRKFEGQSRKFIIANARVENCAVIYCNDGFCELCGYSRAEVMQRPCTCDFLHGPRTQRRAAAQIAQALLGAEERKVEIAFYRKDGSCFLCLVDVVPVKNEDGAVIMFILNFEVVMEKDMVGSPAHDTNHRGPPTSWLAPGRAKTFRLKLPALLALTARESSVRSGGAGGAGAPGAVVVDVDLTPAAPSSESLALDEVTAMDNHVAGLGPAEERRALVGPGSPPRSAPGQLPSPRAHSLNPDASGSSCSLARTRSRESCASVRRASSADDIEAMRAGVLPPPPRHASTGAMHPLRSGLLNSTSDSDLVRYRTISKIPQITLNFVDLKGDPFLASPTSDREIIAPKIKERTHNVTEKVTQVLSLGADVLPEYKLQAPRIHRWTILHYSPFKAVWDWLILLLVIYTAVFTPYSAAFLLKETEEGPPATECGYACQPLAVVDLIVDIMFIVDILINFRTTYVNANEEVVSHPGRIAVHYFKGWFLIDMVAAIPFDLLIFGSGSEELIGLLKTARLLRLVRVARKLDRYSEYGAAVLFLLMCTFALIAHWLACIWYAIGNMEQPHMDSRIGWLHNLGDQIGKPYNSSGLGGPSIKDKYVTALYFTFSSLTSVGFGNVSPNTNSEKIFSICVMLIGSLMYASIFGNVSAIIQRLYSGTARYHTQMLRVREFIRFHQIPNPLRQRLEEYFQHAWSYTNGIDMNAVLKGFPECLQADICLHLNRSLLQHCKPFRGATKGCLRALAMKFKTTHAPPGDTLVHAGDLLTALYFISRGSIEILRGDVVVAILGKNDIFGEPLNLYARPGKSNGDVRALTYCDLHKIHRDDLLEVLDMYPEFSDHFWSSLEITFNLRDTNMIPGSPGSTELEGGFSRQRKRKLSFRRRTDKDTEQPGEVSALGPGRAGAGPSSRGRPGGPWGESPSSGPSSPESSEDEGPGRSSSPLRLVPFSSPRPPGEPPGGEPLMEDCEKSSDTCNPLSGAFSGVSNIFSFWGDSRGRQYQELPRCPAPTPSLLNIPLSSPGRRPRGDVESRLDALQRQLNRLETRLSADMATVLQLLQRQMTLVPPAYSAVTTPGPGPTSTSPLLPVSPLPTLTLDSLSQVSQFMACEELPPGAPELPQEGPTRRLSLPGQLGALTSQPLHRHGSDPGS

Structure (SMILES) | hERG current change (%, negative = inhibition) at 1uM [%]
CC1CC(OCC(O)CN2CCN(Cc3ccccc3)CC2)CC(C)(C)C1.Cl (stereo not drawn) | -7.49
CNC(=S)N(CCc1c(C)[nH]c2ccc(OC)cc12)Cc1cccnc1 | 8.56
O=C(CSCc1ccccc1)N1CCN(S(=O)(=O)c2ccc(F)cc2)CC1 | 13.4
Cc1nn(-c2ccccc2)c(N2CCCC2)c1/C=N/n1cnc2scc(-c3ccccc3)c2c1=O | -5.57
COc1cccc(C(=O)C2=NN(C(C)=O)CC2c2ccco2)c1 (stereo not drawn) | 9.67
Cc1ccc(NC2CCCN(C(=O)c3ccc(C)c(N4CCNC4=O)c3)C2)cc1C (stereo not drawn) | 8.39
Cc1ccc(N2CCN(S(=O)(=O)c3nnc(NC(=O)c4ccco4)s3)CC2)cc1 | 14.8
Cc1cc(NC2CCCCC2)nc2ccccc12 | -2.4
CCCCOc1cccc(NC(=O)CSc2nccn2C)c1 | -6.6
CSc1ccc(NC(=O)Nc2cccn(Cc3ccccc3)c2=O)cc1 | 8.6
CNC(=O)CSc1nc2c(c(=O)n(C)c(=O)n2C)n1Cc1ccc(C)cc1 | -8.8
COc1ccccc1C(=O)Nc1ccc2c(c1)nc1n2CCN(C2CCCCC2)C1 | 0.823
COc1ccc(OC)c(NC(=O)c2cc3c(Cl)nc4ccccc4c3s2)c1 | 10.1
CCOC(=O)C1CCN(C(=O)c2c(-c3c(Cl)cccc3Cl)noc2C)CC1 | 0.511
OC1CCC(NC(=S)Nc2ccc(SC(F)F)cc2)CC1 (stereo not drawn) | 6.06
C[C@@H]1OC(Nc2ccc(N=Nc3ccccc3)cc2)[C@H](O)[C@H](O)[C@H]1O (stereo partly drawn) | 18.2
CC1CCN(c2ccc([N+](=O)[O-])cn2)CC1 | 15.7
C[C@@H](NC(=O)c1nc[nH]c1C(=O)N[C@@H](CCCCNC(=O)OC(C)(C)C)C(=O)OC(C)(C)C)c1ccccc1 | 10.9
CCCCN(CC(=O)NCCOC)C(=O)Cn1nnc2ccccc21 | 9.36
CCc1ccc(C2C(C#N)=C(N)C(C#N)(C#N)C3=CCC(C(C)(C)C)CC32)cc1 (stereo not drawn) | 12.7
CCOc1ccc(C(=O)NC2CC(C)(C)NC(C)(C)C2)cc1.Cl | 10.1
CC(=O)c1ccc(NC(=O)CNC2CCCCC2)cc1.Cl | 10.3

Structure (SMILES) | hERG current change (%, negative = inhibition) at 1uM [%]
Cc1ccc(NC(=S)NCCN2CCOCC2)cc1F | 3.11
COc1ccccc1NC(=O)CCc1nnc2ccc(N3CCC4(CC3)OCCO4)nn12 | 8.79
O=C(O)c1cnc(-c2ccccc2)nc1Sc1ccc(Cl)cc1 | 6.55
CCOP(=O)(OCC)C(NC(C)=O)C(Cl)(Cl)Cl (stereo not drawn) | 19.2
COC(=O)c1cc(NC(=O)CC2SCCNC2=O)cc(C(=O)OC)c1 (stereo not drawn) | 15.1
CC1CC(c2ccccc2)n2nc(NC(=O)CCc3ccccc3)nc2N1 (stereo not drawn) | -1.41
O=c1oc2ccccc2c(N2CCCCC2)c1[N+](=O)[O-] | 2
CC(OC(=O)CCN=C1NS(=O)(=O)c2ccccc21)C(=O)c1ccccc1 (stereo not drawn) | 16.7
CCN1CCc2c(C#N)c(N3CCOCC3)nc(NCCO)c2C1 | 11.2
NC(=O)c1ccccc1NC(=O)c1cc(S(=O)(=O)N2CCCCC2)ccc1N1CCOCC1 | -60.5
CCCOC(=O)c1ccc(-c2c(C)noc2-c2ccc(OC)cc2O)o1 | 14.1
O=C(Nc1ccccc1)C1=C[C@H](c2csc3ccccc23)C[C@H](OCc2ccc(CO)cc2)O1 | 8.87
CC(OC(=O)CCN=C1NS(=O)(=O)c2ccccc21)C(=O)N(C)c1ccccc1 (stereo not drawn) | 3.91
O=C1CCCc2ccccc2N1Cc1cccc(F)c1 | 6.59
CCC(CC)c1nnc(NC(=O)c2cc([N+](=O)[O-])ccc2N2CCCCC2)s1 | 11.2
Oc1ccc(Br)cc1CNc1ccccn1 | -0.815
COC(=O)c1ccc(OC)c(CN2CCCN(Cc3ccc(F)cc3)S2(=O)=O)c1 | 3.67
Cc1c(-c2ccc(F)cc2)nc(N)c(C#N)c1-c1ccco1 | 0.307
COc1cc(-c2cc(C(=O)NN3CCN(C)CC3)c3ccccc3n2)cc(OC)c1OC | 0.759
CSc1ncc(Sc2ccccc2)c(C(=O)O)n1 | 10.3
CCS(=O)(=O)c1ccc(N)cc1.Cl | 17.2
CC(C)C1Cc2[nH]c(=O)c(C(=O)O)cc2CO1 (stereo not drawn) | 3.48

Structure (SMILES) | hERG current change (%, negative = inhibition) at 1uM [%]
Cc1c(Cl)cccc1NC(CC(=O)c1ccccc1)C(=O)OCC(=O)c1cccs1 (stereo not drawn) | 2.81
COc1cc(C(=O)Nc2ccc(NC(=O)c3ccco3)nc2)cc(OC)c1OC | 11.4
Cc1cc(NC(=O)C2CCCO2)ccc1Br (stereo not drawn) | -0.258
c1ccc2c(-c3cc(C4CCNCC4)[nH]n3)cccc2c1 | 1.18
Cc1cccc(C(=O)N[C@@H](C)C(=O)N2CCN(c3ncccn3)CC2)c1 | 9.3
CC(C)NS(=O)(=O)c1ccc(CCC(=O)Nc2ccc3c(c2)OCO3)cc1 | 5.87
O=C(N/N=C\c1ccc(Cl)s1)c1ccc(Cn2cccn2)o1 | -7.96
Cc1cc(Cl)ccc1OCC(=O)n1cc(C(=O)c2cc(Cl)ccc2O)cn1 | 11.2
Cc1ccccc1NC(=O)c1c(F)c(F)c(F)c(F)c1F | 11.1
CC(C)CCNC(=O)C(c1cccnc1)N(CCc1ccccc1)C(=O)Cn1nnc2ccccc21 (stereo not drawn) | 3.22
CCCCC/S(CC1CC1(Cl)Cl)=N\S(=O)(=O)c1ccc(C)cc1 (stereo not drawn) | 17.5
O=C(CCl)c1ccc2c(c1)CCN2C(=O)C1CCCCC1 | 18.5
O=C(Cc1cccc2ccccc12)N/N=C/c1ccc2cccc(O)c2n1 | 9.14
Cc1cc(C)n(CC(O)CN(c2cccc([N+](=O)[O-])c2)S(=O)(=O)c2ccccc2)n1 (stereo not drawn) | 17.2
O=C(CNC(=O)c1ccc(S(=O)(=O)N2CCCC2)cc1)N/N=C/c1ccccc1 | -0.632
COc1cccc(-n2c(SCC(=O)NCCc3ccccc3)nnc2-c2ccoc2C)c1 | -50.4
CCCSc1sc(C(=O)OC)c(-c2cccs2)c1C#N | -9.27
CC1=NN(c2ccccc2)C(=O)/C1=C/c1c(O)[nH]c(=S)[nH]c1=O | 12.6
CCC(=O)c1ccc(OCC(=O)Nc2cc(S(=O)(=O)N3CCCCC3)ccc2OC)cc1 | 4.24
Cc1cccc(CC2CC(=O)N(C3CCCCC3)C2=O)c1 (stereo not drawn) | 7.75
O=C(CN1C(=O)NC2(CCCC2)C1=O)OCCOc1ccc(Cl)cc1 | 8.78
COCCn1cnnc1SCC(=O)Nc1sc2c(c1C#N)CCC2 | 13.2

Structure (SMILES) | hERG current change (%, negative = inhibition) at 1uM [%]
CC1Nc2ncnc(N3CCN(c4ccccc4)CC3)c2N(Cc2ccccc2)C1=O.O=C(O)C(F)(F)F (stereo not drawn) | 11.4
CS(=O)(=O)N(CC(=O)NCc1ccc2c(c1)OCO2)Cc1ccc(Cl)cc1 | -20.3
COc1ccc(CC2(CO)CCN(Cc3ccc4c(c3)CCO4)CC2)cc1 | -24.2
COc1ccc(S(=O)(=O)N2CCCCCC2)cc1N(C)S(=O)(=O)c1ccccc1 | 2.28
Cc1cc(C)cc(NC(=S)/N=C(\N)Nc2nc(C)c3ccccc3n2)c1 | 13.4
Cc1ccc(CN2C(=O)CSc3ccc(C(=O)NCCN4CCOCC4)cc32)cc1 | 7.08
Cn1nc(NC(=O)C2CCC2C(=O)O)c2c(F)cccc21 (stereo not drawn) | 3.69
CC(C)C(NS(=O)(=O)c1cccs1)C(=O)N(C)Cc1ccccc1 (stereo not drawn) | 2.73
CCCCCN(C(=O)CCC(=O)OCC(=O)Nc1ccc(C)cc1F)c1c(N)n(CCCC)c(=O)[nH]c1=O | 10.5
CC1(C)CC(=O)C=C(/C=C/c2ccccc2)C1 | 4.32
Brc1ccc(CSc2ccc(-c3ccco3)nn2)cc1 | 18.1
CN1C(=O)/C(=C\c2ccc(N3CCCCC3)o2)C(=O)NC1=S | 13
CCOc1cc(/C=N/NC(=O)CCCC(=O)NC2CCCCC2)ccc1O | 10.3
COC(=O)c1sc2nc(-c3ccccc3)c3c(c2c1N)CCCC3 | 4.42
Cc1c(Cl)cccc1NC(=O)CSc1nc(=O)n(CCCN2CCOCC2)c2c1CCC2 | -3.4
COc1ccc(CCNc2ccc(C(=O)O)cc2[N+](=O)[O-])cc1OC | 23.9
Cc1onc(C(=O)N2CCOCC2)c1[N+](=O)[O-] | 18.4
O=C1CCCC2=C1C(c1cn(-c3ccccc3)nc1-c1cccs1)c1c([nH]c(=O)[nH]c1=O)N2 (stereo not drawn) | 11.9
Cc1nn(-c2ccccc2)c(C)c1NC(=O)COC(=O)c1cc([N+](=O)[O-])ccc1NCCO | 9.4
O=C1C2C3C=CC(C4CC34)C2C(=O)N1/N=C/c1ccc([N+](=O)[O-])s1 (stereo not drawn) | 4.77
COc1ccccc1NC(=O)Nc1nc(CC(=O)NC2CCCC2)cs1 | -2.51
